Results taken from patent US20250066451A1 (SWEDISH ORPHAN BIOVITRUM AB PUBL, published 2025).

T1: human IL-1R-I (human, UniProt P14778 18-332, limits assumed)
T1 construct: bought recombinant protein; also called hIL-1R-I; hIL-1RI
T1 sequence (looked up): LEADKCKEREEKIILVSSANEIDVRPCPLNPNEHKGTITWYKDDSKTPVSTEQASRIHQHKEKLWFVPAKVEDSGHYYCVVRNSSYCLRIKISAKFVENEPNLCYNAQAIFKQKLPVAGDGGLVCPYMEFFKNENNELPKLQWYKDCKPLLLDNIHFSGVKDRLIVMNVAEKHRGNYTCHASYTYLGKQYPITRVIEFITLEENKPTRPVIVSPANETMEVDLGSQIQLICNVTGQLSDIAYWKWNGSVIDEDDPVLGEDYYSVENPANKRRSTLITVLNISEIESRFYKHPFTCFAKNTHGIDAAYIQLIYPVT


Target: T1, human IL-1R-I
Assay: SPR screening; Z-ABD captured on anti-ABD, 100 nM hIL-1R-I injected

Binder	Kd [nM]
Z18814 (Z-ABD) (designed binder) AQHDEALEVDAKYAKEVEEIQMEIFALPNLTRRQYTAFIRKLLDDPSQSSELLSEAKKLNDSQAPKVDYVLAEAKVLANRELDKYGVSDYYKNLINNAKTVEGVKALIDEILAALPYVPG	2.4
Z15840 (Z-ABD) (designed binder) AQHDEALEVDAKYAKEVEVAQMEIFALPNLTRKQYTAFIRKLLDDPSQSSELLSEAKKLNDSQAPKVDYVLAEAKVLANRELDKYGVSDYYKNLINNAKTVEGVKALIDEILAALPYVPG	6.9
Z15862 (Z-ABD) (designed binder) AQHDEALEVDAKYAKEVEIAQMEIFALPNLTRKQYTAFIRKLLDDPSQSSELLSEAKKLNDSQAPKVDYVLAEAKVLANRELDKYGVSDYYKNLINNAKTVEGVKALIDEILAALPYVPG	13
Z15876 (Z-ABD) (designed binder) AQHDEALEVDAKYAKEIEAAQMEIFGLPNLTRKQYTAFIRKLFDDPSQSSELLSEAKKLNDSQAPKVDYVLAEAKVLANRELDKYGVSDYYKNLINNAKTVEGVKALIDEILAALPYVPG	5.7
Z15932 (Z-ABD) (designed binder) AQHDEALEVDAKYAKEVEEAQMEIFILPNLTRKQYTAFIRKLLDDPSQSSELLSEAKKLNDSQAPKVDYVLAEAKVLANRELDKYGVSDYYKNLINNAKTVEGVKALIDEILAALPYVPG	5.5
Z15934 (Z-ABD) (designed binder) AQHDEALEVDAKYAKEVTVAQMEIFALPNLTRKQYTAFIRKLLDDPSQSSELLSEAKKLNDSQAPKVDYVLAEAKVLANRELDKYGVSDYYKNLINNAKTVEGVKALIDEILAALPYVPG	9.4
Z15945 (Z-ABD) (designed binder) AQHDEALEVDAKYAKEVEEAQMEIFSLPNLTRKQYTAFIRKLLDDPSQSSELLSEAKKLNDSQAPKVDYVLAEAKVLANRELDKYGVSDYYKNLINNAKTVEGVKALIDEILAALPYVPG	9.6
Z15975 (Z-ABD) (designed binder) AQHDEALEVDAKYAKEVETAQMEIFVLPNLTRKQYTAFIRKLLDDPSQSSELLSEAKKLNDSQAPKVDYVLAEAKVLANRELDKYGVSDYYKNLINNAKTVEGVKALIDEILAALPYVPG	8.9
Z16062 (Z-ABD) (designed binder) AQHDEALEVDAKYAKEIEEAQMEIFYLPNLTRKQYTAFIRKLFDDPSQSSELLSEAKKLNDSQAPKVDYVLAEAKVLANRELDKYGVSDYYKNLINNAKTVEGVKALIDEILAALPYVPG	6.4
Z16183 (Z-ABD) (designed binder) AQHDEALEVDAKYAKEVEDAQMEIFYLPNLTRKQYTAFIRKLLDDPSQSSELLSEAKKLNDSQAPKVDYVLAEAKVLANRELDKYGVSDYYKNLINNAKTVEGVKALIDEILAALPYVPG	6.5
Z16191 (Z-ABD) (designed binder) AQHDEALEVDAKYAKEIEAAQMEIFYLPNLTRKQYTAFIRKLFDDPSQSSELLSEAKKLNDSQAPKVDYVLAEAKVLANRELDKYGVSDYYKNLINNAKTVEGVKALIDEILAALPYVPG	6.3
Z16208 (Z-ABD) (designed binder) AQHDEALEVDAKYAKEVEKAQMEIFDLPNLTRKQYTAFIRKLFDDPSQSSELLSEAKKLNDSQAPKVDYVLAEAKVLANRELDKYGVSDYYKNLINNAKTVEGVKALIDEILAALPYVPG	11
Z16397 (Z-ABD) (designed binder) AQHDEALEVDAKYAKEVEAAYFEIYELPNLTRKQYTAFIRKLLDDPSQSSELLSEAKKLNDSQAPKVDYVLAEAKVLANRELDKYGVSDYYKNLINNAKTVEGVKALIDEILAALPYVPG	13
Z16440 (Z-ABD) (designed binder) AQHDEALEVDAKYAKEVESAYMEIFHLPNLTRKQYTAFIRKLLDDPSQSSELLSEAKKLNDSQAPKVDYVLAEAKVLANRELDKYGVSDYYKNLINNAKTVEGVKALIDEILAALPYVPG	13
Z16603 (Z-ABD) (designed binder) AQHDEALEVDAKYAKEVEAAQMEIFYLPNLTRKQYTAFIRKLFDDPSQSSELLSEAKKLNDSQAPKVDYVLAEAKVLANRELDKYGVSDYYKNLINNAKTVEGVKALIDEILAALPYVPG	9.1
Z16606 (Z-ABD) (designed binder) AQHDEALEVDAKYAKEIEKAQMEIFDLPNLTRKQYTAFIRKLFDDPSQSSELLSEAKKLNDSQAPKVDYVLAEAKVLANRELDKYGVSDYYKNLINNAKTVEGVKALIDEILAALPYVPG	9.6
Z16737 (Z-ABD) (designed binder) AQHDEALEVDAKYAKEVEEAYMEIFQLPNLTRKQYTAFIRKLLDDPSQSSELLSEAKKLNDSQAPKVDYVLAEAKVLANRELDKYGVSDYYKNLINNAKTVEGVKALIDEILAALPYVPG	12
Z18754 (Z-ABD) (designed binder) AQHDEALEVDAKYAKEVEEIQMEIFRLPNLTRRQYTAFIRKLLDDPSQSSELLSEAKKLNDSQAPKVDYVLAEAKVLANRELDKYGVSDYYKNLINNAKTVEGVKALIDEILAALPYVPG	2.5
Z18756 (Z-ABD) (designed binder) AQHDEALEVDAKYAKEIEEVQMEIFALPNLTRRQYTAFIRKLLDDPSQSSELLSEAKKLNDSQAPKVDYVLAEAKVLANRELDKYGVSDYYKNLINNAKTVEGVKALIDEILAALPYVPG	2.9
Z18757 (Z-ABD) (designed binder) AQHDEALEVDAKYAKEIEEIQMEIFRLPNLTRKQYTAFIRKLFDDPSQSSELLSEAKKLNDSQAPKVDYVLAEAKVLANRELDKYGVSDYYKNLINNAKTVEGVKALIDEILAALPYVPG	3
Z18758 (Z-ABD) (designed binder) AQHDEALEVDAKYAKETEVVQMEIFGLPNLTRRQYTAFIRKLFDDPSQSSELLSEAKKLNDSQAPKVDYVLAEAKVLANRELDKYGVSDYYKNLINNAKTVEGVKALIDEILAALPYVPG	4.8
Z18759 (Z-ABD) (designed binder) AQHDEALEVDAKYAKEIEKVQMEIFHLPNLTRKQYTAFIRKLLDDPSQSSELLSEAKKLNDSQAPKVDYVLAEAKVLANRELDKYGVSDYYKNLINNAKTVEGVKALIDEILAALPYVPG	3.4
Z18760 (Z-ABD) (designed binder) AQHDEALEVDAKYAKETEAVQMEIFALPNLTRRQYTAFIRKLLDDPSQSSELLSEAKKLNDSQAPKVDYVLAEAKVLANRELDKYGVSDYYKNLINNAKTVEGVKALIDEILAALPYVPG	3
Z18762 (Z-ABD) (designed binder) AQHDEALEVDAKYAKELEAIQMEIFRLPNLTRRQYTAFIRKLLDDPSQSSELLSEAKKLNDSQAPKVDYVLAEAKVLANRELDKYGVSDYYKNLINNAKTVEGVKALIDEILAALPYVPG	2.1
Z18763 (Z-ABD) (designed binder) AQHDEALEVDAKYAKEIEAVQMEIFGLPNLTRKQYTAFIRKLLDDPSQSSELLSEAKKLNDSQAPKVDYVLAEAKVLANRELDKYGVSDYYKNLINNAKTVEGVKALIDEILAALPYVPG	5.2
